From the RNAGym collection of RNA variant scans (doi:10.1093/nar/gkz1192)
The source gives no read counts; variants with many changes may rest on few reads.

B1: CPEB3 Ribozyme (parent)
chain: UAACAGGGGGCCACAGCAGAAGCGUUCACGUCGCAGCCCCUGUCAGAUUCUGGUGAAUCUGCGAAUUCUGCUGUAUAUCUC

Variants of: B1
Assay: self-cleavage, relative activity (ratio to wild type); higher = more cleavage; in vitro, sequencing
Method in brief: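 Libraries of CPEB3 self-cleaving ribozyme mutants came from rounds of error-prone PCR and carried barcodes, which DNA sequencing matched to variants. In vitro transcription used T7 RNA polymerase at 37°C for 5 hours, with a further 15 min in DNase I before EDTA stopped the reaction; the ribozymes cleaved during both steps. The RNA was reverse transcribed with template switching and sequenced on Illumina. Relative activity is the cleaved/total read fraction of a variant divided by that of the unmutated ribozyme, averaged over three batches with at least 5 reads.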

**Q.** Which self-cleavage does the source give for A15U U31C U43C A47U U69A here?
**A.** 0.12

**Q.** With A15U U31C U66A as the variant, how does the self-cleavage read?
**A.** 0.09

**Q.** With A15U U41A A64G as the variant, how does the self-cleavage read?
**A.** 0.14

**Q.** For A15U U41C U54C A65G U67C U74C U78C, which self-cleavage is on record?
**A.** 0.2

**Q.** With A15U U43A C71G U72A as the variant, how does the self-cleavage read?
**A.** 0.25

**Q.** Which self-cleavage does the source give for A15U U43C A56U A65G U74C A77G here?
**A.** 0.27

**Q.** Which self-cleavage does the source give for A15U U43C U74A here?
**A.** 0.54

**Q.** Which self-cleavage does the source give for A15U U48C A56G A57G here?
**A.** 0.27

**Q.** For A15U U48C A56U U58A, which self-cleavage is on record?
**A.** 0.23

**Q.** For A15U U48C U60C A64G, which self-cleavage is on record?
**A.** 0.08

**Q.** Which self-cleavage does the source give for A15U U48C U74C here?
**A.** 0.68

**Q.** For A15U U49A A64U U69A, which self-cleavage is on record?
**A.** 0.08

**Q.** Which self-cleavage does the source give for A15U U51A U54C A56G A65G here?
**A.** 0.27

**Q.** Which self-cleavage does the source give for A15U U51C A64C here?
**A.** 0.14

**Q.** With A15U U51C U60A as the variant, how does the self-cleavage read?
**A.** 0.46

**Q.** For A15U U51G U69A, which self-cleavage is on record?
**A.** 0.34

**Q.** For A15U U54A U72C, which self-cleavage is on record?
**A.** 1

**Q.** With A15U U58A A65G as the variant, how does the self-cleavage read?
**A.** 0.17

**Q.** For A15U U60C U78A, which self-cleavage is on record?
**A.** 0.17

**Q.** For A15U U69C G70A U78A, which self-cleavage is on record?
**A.** 0.32

**Q.** For A15U U72A U76C, which self-cleavage is on record?
**A.** 0.62

**Q.** For A15U U74C U80C, which self-cleavage is on record?
**A.** 1.2

**Q.** Which self-cleavage does the source give for G16A A18U G19C U25C U49C U66C U80A here?
**A.** 0.05

**Q.** With G16A A20U U31A U67A as the variant, how does the self-cleavage read?
**A.** 0.27

**Q.** For G16A A21G A45G U54C C62U U67C, which self-cleavage is on record?
**A.** 0.13

**Q.** With G16A A21G U43C U51G as the variant, how does the self-cleavage read?
**A.** 0.07

**Q.** For G16A A28C A45G, which self-cleavage is on record?
**A.** 0.05

**Q.** For G16A A28G C34G A47G U67C A77U, which self-cleavage is on record?
**A.** 0.02

**Q.** With G16A A35U A45G C62A U67C U69C as the variant, how does the self-cleavage read?
**A.** 0.07

**Q.** Which self-cleavage does the source give for G16A C27U G33A A56G U78C here?
**A.** 0.32

**Q.** Which self-cleavage does the source give for G16A C29U A45G U66C here?
**A.** 0.22

**Q.** Which self-cleavage does the source give for G16A C29U U49A U54C G61A here?
**A.** 0.06

**Q.** Which self-cleavage does the source give for G16A C38U G42A A47U U51G here?
**A.** 0.16

**Q.** With G16A G42A U72G as the variant, how does the self-cleavage read?
**A.** 0.11

**Q.** With G16A U25C A45U U80C as the variant, how does the self-cleavage read?
**A.** 0.24

**Q.** Which self-cleavage does the source give for G16A U25C U54C here?
**A.** 0.08

**Q.** For G16A U26A U58C U60A, which self-cleavage is on record?
**A.** 0.11

**Q.** With G16A U26C C34U A35G U60A A64G U69C as the variant, how does the self-cleavage read?
**A.** 0.05

**Q.** For G16A U26C U51C, which self-cleavage is on record?
**A.** 0.4

**Q.** With G16A U31C G70C A75G as the variant, how does the self-cleavage read?
**A.** 0.1

**Q.** With G16A U31C U41C A65G U72A as the variant, how does the self-cleavage read?
**A.** 0.1

**Q.** For G16A U31C U51C A64G, which self-cleavage is on record?
**A.** 0.09

**Q.** For G16A U31G U54C U60C, which self-cleavage is on record?
**A.** 0.14

**Q.** Which self-cleavage does the source give for G16A U41A U66C here?
**A.** 0.11

**Q.** Which self-cleavage does the source give for G16A U41G U54C A56U U76C here?
**A.** 0.1

**Q.** For G16A U41G U54C U76C, which self-cleavage is on record?
**A.** 0.15

**Q.** With G16A U43A U72A as the variant, how does the self-cleavage read?
**A.** 0.36

**Q.** For G16A U51C A65G U78A, which self-cleavage is on record?
**A.** 0.12

**Q.** With G16A U54C A64U as the variant, how does the self-cleavage read?
**A.** 0.12

**Q.** With G16A U54C G61A as the variant, how does the self-cleavage read?
**A.** 0.14

**Q.** For G16A U69A U76G, which self-cleavage is on record?
**A.** 0.19

**Q.** With G16A U72A U78C U80A as the variant, how does the self-cleavage read?
**A.** 0.09

**Q.** For G16C A18G G52A, which self-cleavage is on record?
**A.** 0.36

**Q.** Which self-cleavage does the source give for G16C A18U G19U here?
**A.** 0.4

**Q.** For G16C A20G U43A U60A A64U U78C, which self-cleavage is on record?
**A.** 0.13

**Q.** For G16C A20G U51A A57C, which self-cleavage is on record?
**A.** 0.11

**Q.** Which self-cleavage does the source give for G16C A45G U51C here?
**A.** 0.21

**Q.** For G16C A47G U66C U69C, which self-cleavage is on record?
**A.** 0.1

**Q.** With G16C C17U U25C A35G A47U U69A as the variant, how does the self-cleavage read?
**A.** 0.08

**Q.** For G16C C27A A64U, which self-cleavage is on record?
**A.** 0.17

**Q.** With G16C C34U U41A U54C U78A as the variant, how does the self-cleavage read?
**A.** 0.04

**Q.** For G16C U26C G63A U78A, which self-cleavage is on record?
**A.** 0.14

**Q.** For G16C U41A A65G, which self-cleavage is on record?
**A.** 0.34

**Q.** For G16C U41C U78C, which self-cleavage is on record?
**A.** 0.19

**Q.** Which self-cleavage does the source give for G16C U43C A57U C62U here?
**A.** 0.19

**Q.** With G16C U48A U67A U78C as the variant, how does the self-cleavage read?
**A.** 0.07

**Q.** Which self-cleavage does the source give for G16C U49C A64G U80C here?
**A.** 0.07

**Q.** With G16U A20G U25C as the variant, how does the self-cleavage read?
**A.** 0.25

**Q.** Which self-cleavage does the source give for G16U A20U U25C U51C here?
**A.** 0.06

**Q.** Which self-cleavage does the source give for G16U A28G U31C U41C A56U U66A here?
**A.** 0.12

**Q.** With G16U A35U A65G as the variant, how does the self-cleavage read?
**A.** 0.09

**Q.** With G16U A45U U67A as the variant, how does the self-cleavage read?
**A.** 0.14

**Q.** For G16U A47G G63U, which self-cleavage is on record?
**A.** 0.22

**Q.** For G16U C27A A57G A64U, which self-cleavage is on record?
**A.** 0.05

**Q.** Which self-cleavage does the source give for G16U C34A U43C U67A here?
**A.** 0.07

**Q.** Which self-cleavage does the source give for G16U U25C U58A C62U U69C here?
**A.** 0.12

**Q.** Which self-cleavage does the source give for G16U U26A G30A U43G here?
**A.** 0.21

**Q.** For C17A A18G A35U U54A A57G, which self-cleavage is on record?
**A.** 0.09

**Q.** With C17A A18G U26A A75U as the variant, how does the self-cleavage read?
**A.** 0.08

**Q.** Which self-cleavage does the source give for C17A A18U A45G here?
**A.** 0.21

**Q.** Which self-cleavage does the source give for C17A A35U A56G U58C U69C here?
**A.** 0.14

**Q.** Which self-cleavage does the source give for C17A A45U U60G here?
**A.** 0.14

**Q.** For C17A A47U U60C C62U A75U, which self-cleavage is on record?
**A.** 0.09

**Q.** With C17A A64G C71G G73A as the variant, how does the self-cleavage read?
**A.** 0.05
